# Data reported in PubChem BioAssay AID686979 (National Center for Advancing Translational Sciences (NCATS), 2013).
# Hit rate of the full screen: of about 420,000 compounds, about 50,000 (12%) were called active. Roughly 26% stayed inconclusive and do not appear here. Calls come from the whole dose curve; as a rule, active = well fitted inhibition curve with a large enough effect; inconclusive = small, poorly fitted or top-dose-only effect; inactive = flat fitted curve, though single readings scatter. Only a part is listed here, and it is no random draw. Some compounds were tested as several samples or in several runs, with calls that do not always agree.
# Test: qHTS for Inhibitors of human tyrosyl-DNA phosphodiesterase 1 (TDP1): qHTS in cells in presence of CPT; note: nearly all actives have a fitted effect of over 55% in size
# Conditions: chicken DT40 Tdp1-/-;hTDP1 cells + 20 nM CPT, ATP luminescence, 48 h; series mostly up to 46.2 µM; activity change, negative = growth inhibition: at the top concentration
# Text: Human tyrosyl-DNA phosphodiesterase 1 (TDP1) is a novel repair gene, and we propose to use it as a new target for anticancer drug development. TDP1 is not an essential protein, but under treatment with topoisomerase I poison (camptothecin: CPT), TDP1 works as a critical factor for cell survival. To directly identify novel TDP1 inhibitors active in a cellular environment, we have knocked-out the Tdp1 gene in chicken DT40 cells (Tdp1-/-) and generated a complemented counterpart cells that contains a stable transfection of the human TDP1 gene (Tdp1-/-;hTDP1 cells). For the primary screen, Tdp1-/-;hTDP1 cells will be exposed to small molecules in the presence or absence of CPT, and their growth kinetics will be evaluated after 48 hours by measuring ATP activity. […] The hit compounds will then be evaluated in the presence or absence of CPT using Tdp1-/- cells. […] In tertiary assays, biochemical gel-based assays will be used to assess whether the hit compounds specifically target TDP1. To this end, we have screened this cell line against the MLSMR in two primary screens. In one screen we add CPT and in the other we screen in the absence of CPT; this AID represents the screen where CPT was present. NIH Chemical Genomics Center [NCGC] NIH Molecular Libraries Probe Centers Network [MLPCN] MLPCN Grant: MH095538 Assay Submitter (PI): Yves Pommier, NCI
# DT40-hTDP1 cells with 20 nM Camptothecin (add 20 microL of 1 mM CPT stock in 1 L of cell culture medium) were dispensed at 400 cells/5microL/well in tissue culture treated 1536-well white wall/solid bottom assay plates (Greiner Bio-One North America, NC, U.S.A.) using a Multidrop Combi 8 channel dispenser (Thermo Fisher, Waltham, MA, USA). 23 nL compounds and controls were transferred using the pin tool (Kalypsys, San Diego, CA, USA) to the assay plates. The assay plates were then incubated at 37 masculineC for a minimum 48 hr. Three microL of Cell Titer Glo solution was added to the plates and incubated at RT in dark for 30 min. Luminescence was read using ViewLux (Perkin Elmer) with 1 sec exposure slow speed, high gain and 2x binning.
# % is set by controls: 0 for no effect and ±100 for the full control effect; potency is the fitted concentration of half-maximal effect.
Compound,"activity change, negative = growth inhibition",Potency
Cc1c(NC(=O)c2cc(-c3ccc(Cl)c(Cl)c3)on2)c(=O)n(-c2ccccc2)n1C,inactive: -24.2%,
Cc1cc2c(cc1S(=O)(=O)NCc1ccccc1Cl)OCCN2C,inactive: -13.7%,
COc1ccc(Cl)cc1C(=O)NCc1ccc2c(c1)OCO2,inactive: 30.8%,
c1csc(CNc2ncnc3nc[nH]c23)c1,,inactive
CC(=O)C[C@@H](O)CC(=O)[C@@H]1OC(=O)[C@@H](C)CCCCc2ccccc21,inactive: 1.86%,
COC(=O)C(C)Oc1ccc(-c2nccc(-c3cccs3)n2)cc1 (centres undefined),inactive: 31.8%,
CCc1ccccc1N(C)C(=O)c1cn(CC(C)C)c(=O)c2cc(OC)c(OC)cc12,,active: 10.3 µM
CCCOc1ccc(/C=C/c2[nH]c(=O)[nH]c(=O)c2[N+](=O)[O-])cc1OCC,inactive: 27%,
CC(=O)N1CCc2c(sc3c2c(=O)n(-c2ccccc2)c(=O)n3CC(=O)Nc2ccccc2)C1,inactive: 31.1%,
CC1=C(C(=O)Nc2ccccc2)C(c2ccccn2)n2nc(SCc3ccccc3)nc2N1 (centres undefined),,active: 5.17 µM
O=C(N/N=C\c1ccccn1)c1cccc(C(=O)N/N=C\c2ccccn2)n1,inactive: -5.04%,
CS(=O)(=O)Nc1nc2n(n1)C(c1ccc(F)cc1)CC(c1ccccc1)N2 (centres undefined),inactive: 10.1%,
C[C@H](CO)N1C[C@H](C)[C@@H](CN(C)Cc2ccc3c(c2)OCCO3)OCc2cnnn2CCCC1=O,inactive: 5.63%,
Cc1ccc(C(C)C)cc2c(C)ccc1-2,,inactive
O=C1[C@H](Cc2ccccc2)NC/C=C\C[C@@H](c2ccc(Cl)cc2)N1Cc1ccccc1,,active: 12.6 µM
O=C(NCc1ccc(F)cc1)c1cc(C2CCCN(C(=O)CCCc3ccccc3)C2)on1 (centres undefined),,active: 23.1 µM
Cc1ccc(NC(=S)NNC(=S)Nc2ccc(C)cc2)cc1,,active: 6.51 µM
Cc1ccc(C)c(N(C(=O)c2snc(C(N)=O)c2N)C(C(=O)NCC2CCCO2)c2cccs2)c1 (centres undefined),,active: 7.31 µM
CCCCn1nnnc1C(c1cc2ccccc2o1)N1CCN(CC(=O)NC(C)C)CC1 (centres undefined),inactive: -17.6%,
CCCCc1ccc(NC(=O)C(=O)NCCN2CCN(Cc3ccc([N+](=O)[O-])cc3)CC2)cc1,,active: 3.26 µM
O=c1oc2ccccc2cc1-c1nc2c(s1)CCc1ccccc1-2,inactive: -8.82%,
CCC(CC)C(=O)N(C)c1c(C)nc2c(OCc3ccccc3C)cccn12,,active: 6.51 µM
Cc1cccc(NC2=C(NCCO)C(=O)c3ccccc3C2=O)c1,,active: 16.4 µM
CS(=O)(=O)Nc1ccc([N+](=O)[O-])cc1Oc1ccccc1,,inactive
COc1cc(C)nc(-n2nc(C)cc2OC)n1,,inactive

Compound,"activity change, negative = growth inhibition",Potency
CC1=C(C(=O)NCc2ccc(Cl)cc2)C2(CCC(C)CC2)OC1=O (centres undefined),inactive: -28.5%,
CCC(=O)/C=C1\Sc2ccccc2N1CC,inactive: -24.6%,
CCN(C(=O)CSc1nnc(-c2ccncc2)n1-c1ccccc1)C1CCS(=O)(=O)C1 (centres undefined),inactive: 39.1%,
Cc1cccc(NC(=O)CSc2nc(C)c(Cc3ccccc3)c(=O)[nH]2)c1,inactive: -17.7%,
Cc1ccc(CNC(=O)CCC(=O)N2CC(C)Sc3ccccc32)cc1 (centres undefined),inactive: -27.6%,
CC[C@]12CCCN3CCc4c(n(c5ccccc45)C(=O)C1)[C@@H]32,inactive: 5.62%,
Cc1cc(C)c(/C=C/c2onc(C)c2S(=O)(=O)N2CCC(C(=O)N3CCN(c4ccccc4)CC3)CC2)c(C)c1,,active: 16.4 µM
COc1cc(OC)c(C2NC(=O)CCC2[N+](=O)[O-])cc1OC (centres undefined),inactive: 12.3%,
O=C1CN(C(=O)N[C@@H](Cc2ccccc2)C(=O)N[C@H](C(=O)O)c2ccccc2)c2ccccc2N1,inactive: -19.7%,
Cc1cccc(NC(=O)CCN2C(=O)C3C4C=CC(C4)C3C2=O)n1 (centres undefined),,active: 16.4 µM
Cc1ccc(C)c(-c2ccc(=O)n(Cc3c(F)cccc3Cl)n2)c1,inactive: -120%,
CCSc1ncc(Cl)c(C(=O)Nc2sc3c(c2C(=O)NCCCOC)CCCC3)n1,inactive: -4.94%,
COC(=O)C1(C)NC(c2ccco2)C2C(=O)N(c3ccc(F)cc3)C(=O)C21 (centres undefined),inactive: 30.2%,
COC(=O)CCC(C)C1CCC2C3CC[C@H]4CC(O)CC[C@@]4(C)C3CC(O)[C@]12C (some centres undefined),inactive: -31.6%,
CS(=O)(=O)N1CCc2cc(C(=O)Nc3ccc(C(F)(F)F)cc3)ccc21,,active: 9.2 µM
CCOc1ccc(-n2c(SCC(=O)NCc3ccco3)nc3c([nH]c4ccccc43)c2=O)cc1,inactive: -8.43%,
O=P(C(=S)Nc1ccccc1Cl)(c1ccccc1)c1ccccc1,,active: 9.2 µM
CC1CCC(NC(=O)N(CCCl)N=O)CC1 (centres undefined),inactive: 1.14%,
CCOC(=O)c1c(OCCO)nn(-c2ccc(Cl)cc2)c1N,inactive: 30.7%,
CCOC(=O)CNc1nc(C#N)nc(N2CCOCC2)n1,inactive: -24.5%,
COc1cc(O)c(C(C)=O)c(OC)c1,inactive: -16.4%,
O=C(NC1CCCCC1)[C@@H]1CC=C[C@@H]2CCN(C3CCCCC3)C(=O)[C@@H]21,inactive: -20.9%,
Cn1cc(C(=O)OCC2CCN(CCNS(C)(=O)=O)CC2)c2ccccc21,inactive: -2.72%,
CCN(CC)S(=O)(=O)c1ccc2c(c1)C(=NO)c1cc(S(=O)(=O)N(CC)CC)ccc1-2,,active: 2.31 µM
